Experiment in all cases: co-IP; U266 cells transfected with HA- or Flag-tagged expression plasmids for 48 h; lysate (1 mg) with anti-HA or anti-Flag antibody (10 μg) and protein A/G magnetic beads overnight at 4 °C, four washes with lysis buffer, Western blot; for LRG1 and OLFM4 also with cells treated with TGF-β
Background: A western blot detects proteins with antibodies after separation by electrophoresis.

Protein sequences, listed by entry. Tags and fused reporters are not part of them. Lines headed by an entry give the natural chain unless they say otherwise; changes in a name come on top. Residues count along the entry.
UniProt Q6UX06: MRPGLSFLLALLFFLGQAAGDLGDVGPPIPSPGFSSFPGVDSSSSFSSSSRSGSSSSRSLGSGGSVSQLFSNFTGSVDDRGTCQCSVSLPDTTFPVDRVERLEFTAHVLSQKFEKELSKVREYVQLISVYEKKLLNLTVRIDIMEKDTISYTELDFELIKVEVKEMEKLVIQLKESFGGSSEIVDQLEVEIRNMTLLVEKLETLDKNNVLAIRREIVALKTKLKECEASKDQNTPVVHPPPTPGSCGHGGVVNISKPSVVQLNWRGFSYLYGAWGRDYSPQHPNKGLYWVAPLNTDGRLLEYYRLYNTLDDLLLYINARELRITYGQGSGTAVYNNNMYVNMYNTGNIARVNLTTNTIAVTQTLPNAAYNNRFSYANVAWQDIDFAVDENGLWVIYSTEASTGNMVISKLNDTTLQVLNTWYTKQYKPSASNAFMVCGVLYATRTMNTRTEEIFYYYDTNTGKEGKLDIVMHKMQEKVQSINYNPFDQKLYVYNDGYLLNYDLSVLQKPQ
Olfactomedin 4 (OLFM4), full-length: residues 21-510 of Q6UX06
OLFM4Δ3 (31–234 aa): residues 31-234 of Q6UX06
UniProt Q99784, residues 17-485: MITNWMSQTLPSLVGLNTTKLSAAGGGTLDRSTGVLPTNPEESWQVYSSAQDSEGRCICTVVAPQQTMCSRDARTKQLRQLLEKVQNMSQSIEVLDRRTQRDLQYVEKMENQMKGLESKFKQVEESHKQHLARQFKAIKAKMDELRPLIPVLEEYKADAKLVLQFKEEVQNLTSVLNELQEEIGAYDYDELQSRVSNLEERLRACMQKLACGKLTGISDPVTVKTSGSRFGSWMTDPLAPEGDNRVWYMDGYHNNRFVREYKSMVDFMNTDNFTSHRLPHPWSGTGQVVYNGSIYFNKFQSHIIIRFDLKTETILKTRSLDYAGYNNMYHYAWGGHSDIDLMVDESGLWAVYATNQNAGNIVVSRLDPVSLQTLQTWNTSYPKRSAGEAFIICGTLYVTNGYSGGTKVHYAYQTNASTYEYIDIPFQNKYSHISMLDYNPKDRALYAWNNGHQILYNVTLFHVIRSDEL

For assay [1], the target named is T1, OLFM3, full-length (UniProt Q96PB7).
T1 sequence: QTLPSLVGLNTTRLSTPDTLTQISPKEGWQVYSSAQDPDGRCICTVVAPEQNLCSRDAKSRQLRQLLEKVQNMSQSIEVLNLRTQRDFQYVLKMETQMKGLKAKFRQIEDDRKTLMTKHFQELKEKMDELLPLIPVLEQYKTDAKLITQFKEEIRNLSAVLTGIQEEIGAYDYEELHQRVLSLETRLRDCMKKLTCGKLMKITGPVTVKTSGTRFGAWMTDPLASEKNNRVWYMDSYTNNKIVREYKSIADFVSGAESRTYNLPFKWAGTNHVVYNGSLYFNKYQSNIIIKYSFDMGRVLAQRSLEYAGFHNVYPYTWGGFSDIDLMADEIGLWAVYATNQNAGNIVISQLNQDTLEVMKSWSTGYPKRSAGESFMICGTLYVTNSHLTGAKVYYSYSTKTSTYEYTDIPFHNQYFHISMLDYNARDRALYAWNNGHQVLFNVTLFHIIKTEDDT

Assay [2] has as its target Olfactomedin 4 (OLFM4), full-length (UniProt Q6UX06).
The target in assay [3] is OLFM1, full-length (UniProt Q99784).
The target in assay [4] is T2, OLFM2, full-length (UniProt O95897).
T2 sequence: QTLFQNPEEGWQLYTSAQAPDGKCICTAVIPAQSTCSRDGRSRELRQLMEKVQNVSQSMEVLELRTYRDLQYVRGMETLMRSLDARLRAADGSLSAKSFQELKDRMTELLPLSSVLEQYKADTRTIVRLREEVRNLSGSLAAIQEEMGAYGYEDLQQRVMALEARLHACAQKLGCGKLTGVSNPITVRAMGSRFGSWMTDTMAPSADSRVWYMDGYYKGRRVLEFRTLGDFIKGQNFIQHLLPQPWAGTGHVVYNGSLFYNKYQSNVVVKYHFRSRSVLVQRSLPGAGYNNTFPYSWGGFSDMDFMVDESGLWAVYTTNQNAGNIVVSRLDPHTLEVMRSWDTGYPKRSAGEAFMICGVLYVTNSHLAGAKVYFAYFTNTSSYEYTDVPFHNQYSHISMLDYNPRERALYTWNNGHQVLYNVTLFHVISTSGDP

Assay [5] concerns the target OLFM4Δ3 (31–234 aa) (UniProt Q6UX06).

No constants are given. Whether binding was seen depends on the method and setting. Binding seen in cells or lysates may run through a third protein. Some binding calls cover weakened binding; strength is not graded here.

B1: Leucine-rich-alpha-2-glycoprotein 1 (LRG1), full-length (protein, UniProt P02750 36-347)
chain: VTLSPKDCQVFRSDHGSSISCQPPAEIPGYLPADTVHLAVEFFNLTHLPANLLQGASKLQELHLSSNGLESLSPEFLRPVPQLRVLDLTRNALTGLPPGLFQASATLDTLVLKENQLEVLEVSWLHGLKALGHLDLSGNRLRKLPPGLLANFTLLRTLDLGENQLETLPPDLLRGPLQLERLHLEGNKLQVLGKDLLLPQPDLRYLFLNGNKLARVAAGAFQGLRQLDMLDLSNNSLASVPEGLWASLGQPNWDMRDGFDISGNPWICDQNLSDLYRWLQAQKDKMFSQNDTRCAGPEAVKGQTLLAVAKSQ
Regarding B1, the binding entry in assay [1] was “no binding”; in assay [2], “binds”; in assay [3], “no binding”; in assay [4], “no binding”; in assay [5] it was “no binding”.

(Values after article PMC11176168.)
